Screen size: about 110,000 compounds; about 230 (0.21%) showed an effect of 50% or more. The list shows a part of the results.
These molecules were tested against DPAP1 (Plasmodium falciparum, UniProt Q8IIJ9) (assay: primary screen, percent inhibition; read by cleavage of a fluorogenic dipeptide substrate; higher = more effect of the substance).
Design: species or system P. falciparum D10 trophozoite lysates; single well
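Note: 30 min substrate incubation versus DMSO and 10 µM JCP410 controls.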

Sequence of DPAP1 (Q8IIJ9 whole entry, looked up): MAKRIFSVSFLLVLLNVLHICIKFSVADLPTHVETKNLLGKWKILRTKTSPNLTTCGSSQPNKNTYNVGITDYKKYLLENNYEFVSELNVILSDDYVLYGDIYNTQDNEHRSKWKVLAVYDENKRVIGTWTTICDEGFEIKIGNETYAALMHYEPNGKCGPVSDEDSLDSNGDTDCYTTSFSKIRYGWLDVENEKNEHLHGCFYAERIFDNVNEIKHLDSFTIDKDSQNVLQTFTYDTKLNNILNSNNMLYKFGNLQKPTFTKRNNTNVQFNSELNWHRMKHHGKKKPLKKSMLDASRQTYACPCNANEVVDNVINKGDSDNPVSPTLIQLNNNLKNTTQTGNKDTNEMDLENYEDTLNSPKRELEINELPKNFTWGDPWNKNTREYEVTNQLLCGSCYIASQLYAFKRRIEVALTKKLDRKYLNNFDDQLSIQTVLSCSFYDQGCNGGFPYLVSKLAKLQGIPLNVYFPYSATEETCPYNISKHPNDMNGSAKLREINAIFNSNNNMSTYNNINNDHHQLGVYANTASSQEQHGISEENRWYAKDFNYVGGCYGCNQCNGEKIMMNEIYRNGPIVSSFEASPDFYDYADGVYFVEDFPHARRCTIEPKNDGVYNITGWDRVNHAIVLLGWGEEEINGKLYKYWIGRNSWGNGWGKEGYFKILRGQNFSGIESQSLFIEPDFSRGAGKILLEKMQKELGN

Row | Compound | % Inhibition @ 10 uM [%]
1 | Cc1ccc2oc(Nc3nc(C)cc(C)n3)nc2c1 | -5.71
2 | CSC(SC)=C(C(=O)c1ccccc1)[n+]1ccccc1 | -3.63
3 | Cc1cccc(Nc2nc3c(s2)CCC3)c1 | 12
4 | CO/C(O)=C1\C(C)=NC2=C(C(=O)CC(C)(C)C2)C1c1cccc(O)c1 (stereo not drawn) | 5.7
5 | COc1ccc(S(=O)(=O)N2CC(C)OC(C)C2)cc1 (stereo not drawn) | -1.54
6 | Cc1cc(Cl)ccc1NC(=O)COc1ccc(S(=O)(=O)NC2CCCC2)cc1 | 2.5
7 | Cc1ccccc1Cc1c(C)nc2c(C(=O)N3CCC4(CC3)OCCO4)cnn2c1C | -3.94
8 | N#C[C@H](COC(=O)Nc1ccccc1)NC(=O)[C@H](CC1CCCCC1)NC(=O)OCc1ccccc1 | 1.71
9 | COc1ccc(C2C(C#N)=C(N)Oc3cc(N)ccc32)c(OC)c1 (stereo not drawn) | 4.6
10 | O=C(C1=C(O)C(=O)N(CCCn2ccnc2)C1c1ccc(Cl)c(Cl)c1)c1cc2ccccc2o1 (stereo not drawn) | -6.68
11 | CC(NC(=O)c1cc2ccccc2o1)c1ccccc1 (stereo not drawn) | -6.06
12 | O=C(NC(=S)N1CCOCC1)C12CC3CC(CC(C3)C1)C2 | 1.9
13 | Cc1c(CNCc2ccc(OC(C)C)cc2)c(C(=O)O)c(C)n1Cc1cccc(Cl)c1 | -0.23
14 | CCOC(=O)c1cnc2ccc(OCC)cc2c1N1CCCC(C)C1 (stereo not drawn) | -0.631
15 | NC(=O)c1ccccc1NC(=O)c1ccccc1C(=O)O | 2.13
16 | CCC[C@H](NC(=O)C(Cc1c(F)cccc1F)NC(=O)c1ccc(-c2ccccc2Cl)cc1)C(=O)c1nnc(C(C)(C)C)o1 (stereo partly drawn) | -5.2
17 | O=C1C2C3C=CC(C3)C2C(=O)N1c1ccccc1 (stereo not drawn) | -0.0369
18 | COc1ccccc1C(=O)ON1C(=O)c2ccccc2C1=O | 2.68
19 | CCOC(=O)c1cnc2cc(-c3ccc(Br)cc3)nn2c1-c1ccccc1 | -0.169
20 | CS(=O)(=O)N(CC(=O)Nc1cc(C(F)(F)F)ccc1Cl)Cc1ccccc1 | -1.82
21 | O=C(c1ccccc1)N(CCCO)CC(O)Cn1c2ccccc2c2ccccc21 (stereo not drawn) | -6.94
22 | CC1(C)CC(=O)c2sc(N3CCOCC3)nc2C1 | 2.05
23 | Cc1cc(NCc2ccccc2)c2ccccc2n1 | 0.343
24 | Cc1ccc(C)c(N(CC(=O)NC2CCCC2)S(=O)(=O)c2ccccc2)c1 | 0.793
25 | O=C(Nc1ccccn1)c1ccc(N2C(=O)C3C4C=CC(C4)C3C2=O)cc1 (stereo not drawn) | -2.58
26 | Cc1ccc(C(C)NC(=O)c2cccs2)cc1C (stereo not drawn) | -4.02
27 | Clc1cccc(-c2nc(N3CCOCC3)nc3c2COc2ccccc2-3)c1 | 2.32
